Measurements reported in US5011828A, “Immunostimulating guanine derivatives, compositions and methods” (priority 1988, dated 1991).
“Also recorded” adds a separate entry of the source. For part of these data: At least one read-out could not be matched to a standard name with certainty. For at least one compound, name, drawing or mass did not settle the structure. Some compounds share one wording; it may come from a single statement.

Experiments:
[1] = test system: murine lymphocytes (sheep red blood cells as antigen); test: Antigen-specific adjuvanticity: direct anti-SRBC plaque forming cells, murine system; format: cell-based, mouse; settings: for adjuvanticity, in words: murine system; for Direct anti-SRBC PFC/Culture: Table 8, 7.5 × 10^-6 M
Source text: ^1 Adjuvanticities against sheep red blood cells [SRBC] measured in
direct plaqueforming cells per culture of lymphocytes from the mouse
strains shown. Details of the procedure are provided in the Materials and
Methods Section. Standard errors from the enumerated mean values are show
A large number of comparisons of adjuvanticity using human and murine lymphocytes as the source of leukocytes have been carried out using compounds of the present invention, as well as with new compounds excluded from the present invention. […] Interstudy comparisons are however useful for showing trends and large differences. Tables 5, 6 and 7, hereinafter, provide exemplary data from such studies in which only the activity at the peak concentration is shown for each compound and the results for the controls are omitted.
Lymphocyte cultures. The serum-containing culture medium water prepared to contain the following per 100 milliliters: 91.9 milliliters RPMI 1640 (Flow Laboratories, Inc., Rockville, Md.), 0.1 milliliters of 100×glutamine, 1.0 milliliter of 100×sodium pyruvate, 1 0 milliliter of 50×nonessential amino acids, 1.0 milliliter of water containing 10^4 units of penicillin G and 10^4 micrograms of streptomycin, and 5.0 milliliters of a supportive lot of fetal calf serum (FCS). These ingredients were admixed to apparent homogeneity. Spleen cell suspensions and populations enriched for splenic B cells were prepared as described in Goodman et al., J. Immunol., 121:1905 (1978).
For evaluation of the primary humoral immune response to sheep erythrocytes (SRBC), 5×10^6 to 10^7 murine spleen cells were cultured in 1.0 milliliter of 5% FCS-containing medium for 4 or 5 days in the presence and absence of immunogen. Cells were incubated in culture trays (Costar, Cambridge, Mass.) at 37° C. in a humidified atmosphere of 10% CO2 in air using tissue culture boxes (CBS Scientific, Del Mar, Calif.) that were rocked at a frequency of 7 cycles per minute. Pooled SRBC are available from the Colorado Serum Co., Denver Colo.
Assay of plaque forming cells (PFC). PFC secreting antibodies against SRBC were evaluated after 4 or 5 days of culture using a modification of the hemolytic plaque assay of Jerne and Nordin, Science, 140:405 (1963). The cells were brought up in complete medium before plaquing; they were plaqued in standard low Mr agarose (Bio-Rad Laboratories, Richmond Calif.), and were incubated in SRBC-absorbed guinea pig complement for one hour after a 1.5 hour incubation without complement.

[2] = test system: murine spleen cells; test: Mitogenicity: [3H]TdR uptake, murine system; format: cell-based, mouse; settings: same concentration range (Table 4)
[3] = test system: senescent (156 weeks old) CBA/CaJ mouse splenocytes; test: In vitro reconstitution of primary humoral immune response to SRBC, senescent CBA/CaJ splenocytes (FIG. 3); format: cell-based; settings: 3 and 10 micromolar, healthy adult and senescent splenocytes
[4] = test system: CBA/N mouse spleen cells; test: In vitro reconstitution of primary humoral immune response to SRBC, immunodeficient CBA/N spleen cells (FIG. 2); format: cell-based; settings: CBA/N cells vs CBA/CaJ
Source text: FIG. 2 is a graph that illustrates the in vitro reconstitution of the primary humoral immune response to a specific antigen, SRBC, in cultured immunodeficient CBA/N mouse spleen cells (dotted line) obtained by contacting those cells with an aqueous composition containing 7a8oGuo, in the further presence of SRBC. A similar study using spleen cells from immunocompetent CBA/CaJ mice (solid line) is also shown in the graph for comparison. The points on each line represent the PFC value obtained in the presence of the indicated amount of 7a8oGuo plus SRBC. The ordinate and abscissa are as in FIG. 1. Further details of this study are provided hereinafter.
Cultures of spleen cells from male and female homzygous CBA/N and male mice heterozygous for the CBA/N gene, called the xid gene, (male mice bear the X chromosome) was prepared as described in the Materials and Methods Section. 0.1 Milliters of a 0.1 percent (v/v) SRBC suspension alone or the SRBC suspension plus incremental amounts of 7a8oGuo were added to the cultures, using 5×10^6 cells/ml. Direct anti-SRBC […] per culture were assessed after 4 days of culture.

[5] = test system: CBA/CaJ mouse B cells; test: T cell-replacing activity: anti-SRBC PFC of T cell-depleted B cells (FIG. 1); format: cell-based
[6] = test system: anti-TNP-BSA antibody titers in CBA/CaJ mice; test: In vivo anti-TNP-BSA antibody response (ELISA); design: species or system mouse; settings: i.p.; day 9 to day 37
Method: FIG. 4 is a graph containing a number of plots that illustrate the in vivo kinetics of enhanced anti-trinitrophenyl bovine serum albumin (TNP-BSA) antibody responses elicited by contacting leukocytes in vivo with a composition containing 7-allyl-8-mercaptoguanosine (7a8MGuo). Here, the guanosine derivative (0.2 ml of 7a8MGuo at 5 mg/ml) was in a vehicle of 100 percent sesame oil (solid line) or 2 percent sesame oil in saline (dotted line) when introduced into the animal.
Three groups of CBA/CaJ mice were utilized. Each group was immunized with the TNP-BSA conjugate. […]
Antibody titers to TNP-BSA were determined over a period of 37 days using standard enzyme-linked immunosorbent assay (ELISA) procedures with TNP-BSA as antigen. […]
CBA/CaJ mice were immunized intraperitonally (i.p.) using a conjugate (TNP-BSA) prepared by the reaction of 2,4,6-trinitrobenzene sulfonic acid (TNBS) and bovine serum albumin (BSA) in a 0.28 molar cacodylate buffer, at pH 6.9. […] Anti-TNP-BSA antibody secretion from each group was thereafter monitored over a period of 37 days by standard enzyme-linked immunosorbant assay (ELISA) techniques using TNP-BSA as antigen.
Injections. […] Anti-TNP-BSA antibody titers were determined using standard techniques.

[7] = test system: human peripheral blood lymphocytes (sheep red blood cells as antigen); test: Antigen-specific adjuvanticity: direct anti-SRBC plaque forming cells, human system; format: cell-based
Method: ^1 Studies were carried in a manner similar to those of Table 1,
except that a human lymphocyte preparation was used.
The results shown in Table 7, below, were obtained similarly to those discussed above, but using human lymphocytes. Some of those studies utilized lymphocytes from more than one individual, and are therefore reported with multiple entries.
Human peripheral blood lymphocytes (PBL) were prepared from normal heparinized venous blood by Ficoll-diatrizoate density gradient centrifugation. PBL were depleted of suppressor T cells bearing the histamine type 2 receptor by adhering them to the surfaces of histamine-rabbit serum albumin-coated plastic petri dishes (Cell-ect No. 2 kit; Seragen, Boston, Mass.) and by recovering the nonadherent cells by panning as described by Wysocki and Sato, Proc. Natl. Acad. Sci. USA, 75:2844 (1978) and modified by Cavagnaro and Osband, Biotechniques, January/February:30 (1983). […]
Assay of plaque forming cells (PFC). PFC secreting antibodies against SRBC were evaluated after 4 or 5 days of culture using a modification of the hemolytic plaque assay of Jerne and Nordin, Science, 140:405 (1963). […]

SMILES	adjuvanticity, in words [1]	Direct anti-SRBC PFC/Culture [1]	mitogenicity, in words [2]	also measured
CCCCCCCCCCn1c(=O)n([C@@H]2O[C@H](CO)[C@@H](O)[C@H]2O)c2nc(N)[nH]c(=O)c21 [compound 23894, 7-Decyl-8-oxoguanosine]	substantially zero enhancement of PFC/culture; also recorded: substantially zero adjuvanticity			
CCCCCCn1c(=O)n([C@@H]2O[C@H](CO)[C@@H](O)[C@H]2O)c2nc(N)[nH]c(=O)c21 [compound 23924, 7-Hexyl-8-oxoguanosine]	about equally active compared to 7m8oGuo at the lower concentration, and about twice as active at the higher concentration	103 PFC/Culture		
Cn1c(=O)n([C@@H]2O[C@H](CO)[C@@H](O)[C@H]2O)c2nc(N)[nH]c(=O)c21 [7m8oGuo, 7-methyl-8-oxoguanosine, reference compound]		128 PFC/Culture	about the same mitogenicities	
C=CCn1c(=O)n([C@@H]2O[C@H](CO)[C@@H](O)[C@H]2O)c2nc(N)[nH]c(=O)c21 [7a8oGuo, 7-(2-Propenyl)-8-oxoguanosine]	several times more active as adjuvants than was 7-ethyl-8-oxoguanosine	1028 PFC/Culture	about the same mitogenicities	reconstitution of primary humoral response, in words [3]: dose-related response to SRBC; reconstitution of primary humoral response, in words [4]: capable of producing about the same number of PFC/culture; T cell-replacing activity, in words [5]: dose-dependent as well as antigen-dependent
C=CCn1c(=S)n([C@@H]2O[C@H](CO)[C@@H](O)[C@H]2O)c2nc(N)[nH]c(=O)c21 [7a8MGuo, 7-(2-Propenyl)-8-thioxoguanosine]	several times more active as adjuvants than was 7-ethyl-8-oxoguanosine	1130 PFC/Culture		anti-TNP-BSA antibody titers, in words [6]: greater than the controls; also recorded: increased through a time about two weeks after administration, and thereafter remained at about the same elevated level for the duration of the study
Nc1nc2c(c(=O)[nH]1)n(CC=Cc1ccccc1)c(=O)n2[C@@H]1O[C@H](CO)[C@@H](O)[C@H]1O [compound 22827, 7-[(3-Phenyl)-2-propenyl]-8-oxoguanosine]				adjuvanticity, in words [7]: quite active relative to 7m8oGuo, it was substantially less active than 7a8oGuo
CCCn1c(=O)n([C@@H]2O[C@H](CO)[C@@H](O)[C@H]2O)c2nc(N)[nH]c(=O)c21 [compound 24069, 7-Propyl-8-oxoguanosine]	several times more active as adjuvants than was 7-ethyl-8-oxoguanosine	793 PFC/Culture		
CC=CCn1c(=O)n([C@@H]2O[C@H](CO)[C@@H](O)[C@H]2O)c2nc(N)[nH]c(=O)c21 [compound 23679, 7-(2-Butenyl)-8-oxoguanosine]	at least about twice as active as 7m8oGuo at the lower concentration	383 PFC/Culture		
CCn1c(=O)n([C@@H]2O[C@H](CO)[C@@H](O)[C@H]2O)c2nc(N)[nH]c(=O)c21 [compound 23643, 7-Ethyl-8-oxoguanosine]	at least about twice as active as 7m8oGuo at the lower concentration; also recorded: moderately active	313 PFC/Culture	about the same mitogenicities	
CCCCn1c(=O)n([C@@H]2O[C@H](CO)[C@@H](O)[C@H]2O)c2nc(N)[nH]c(=O)c21 [compound 23644, 7-Butyl-8-oxoguanosine]	at least about twice as active as 7m8oGuo at the lower concentration; also recorded: moderately active	292 PFC/Culture	about the same mitogenicities	
C=CCn1c(=S)n([C@@H]2O[C@H](COC(C)=O)[C@@H](OC(C)=O)[C@H]2OC(C)=O)c2nc(N)[nH]c(=O)c21 [compound 22360, 7-(2-Propenyl)-8-thioxo-2',3',5'-triacetylguanosine]	several times more active as adjuvants than was 7-ethyl-8-oxoguanosine	1391 PFC/Culture		
